{"source": "the supplement of paper PMC12217912", "parents": {"B1": {"name": "TEV protease; numbered along this chain (parent)", "chain": "MGESLFKGPRDYNPISSSICHLTNESDGHTTSLYGIGFGPFIITNKHLFRRNNGTLVVQSLHGVFKVKDTTTLQQHLVDGRDMIIIRMPKDFPPFPQKLKFREPQREERICLVTTNFQTKSMSSMVSDTSCTFPSGDGIFWKHWIQTKDGQCGSPLVSTRDGFIVGIHSASNFTNTNNYFTSVPKNFMELLTNQEAQQWVSGWRLNADSVLWGGHKVFMVKPEEPFQPVKEATQL"}}, "note": "The other results are listed elsewhere or left out. Sequences were assembled here from the parent chain. Inactive controls read about 0.05.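 Further: Bxb1 expression induced with 0.2% (w/v) L-rhamnose at OD600 near 0.5, cultures sampled hourly, flipped fraction per protease–substrate barcode pair counted by paired-end Illumina sequencing.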"}
{"variants_of": "B1", "test": "raw area under fraction-flipped curve 0-4 h after induction (AUC4h, not background-subtracted), DNA-recorder readout of cleavage of the substrate (dimensionless); higher = more cleavage of the substrate by the protease variant", "settings": "temperature: 34 °C; time window: 0-4 h after rhamnose induction"}
{"variant": "MGESLFKGPRDYNPISSSICHLTNESDGHTTSLYGIGFGPFIITNKHLFRRNNGTLVVQSLHGVFKVKDTTTLQQHLVDGRDMIIIRMPKDFPPFPQKLKFREPQREERICLVTTNFQTKSMSSMVSDTSCTFPSGDPIFWKHWIQTKDGQCGSPLVSTRDGFIVGIHSASNFTNTNNYFTSVPKNFMELLTNQEAQQWVSGWRLNADSVLWGGHKVFMVKPEEPFQPVKEATQL", "note": "[G138P]", "area with substrate ENLYFES": 0.0584, "area with substrate ENLYFPS": 0.0586, "area with substrate ENLYFRS": 0.0564, "area with substrate ENLYFTS": 0.0658}
{"variant": "MGESLFKGPRDYNPISSSICHLTNESDGHTTSLYGIGFGPFIITNKHLFRRNNGTLVVQSLHGVFKVKDTTTLQQHLVDGRDMIIIRMPKDFPPFPQKLKFREPQREERICLVTTNFQTKSMSSMVSDTSCTFPSGDGIFWKNWIQTKDGQCGSPLVSTRDGFIVGIHSASNFTNTNNYFTSVPKNFMELLTNQEAQQWVSGWRLNADSVLWGGHKVFMVKPEEPFQPVKEATQL", "note": "[H143N]", "area with substrate ENLYFES": 0.0509, "area with substrate ENLYFFS": 0.0624, "area with substrate ENLYFIS": 0.0319, "area with substrate ENLYFMS": 0.0563, "area with substrate ENLYFSS": 0.046, "area with substrate ENLYFTS": 0.0505}
{"variant": "MGESLFKGPRDYNPISSSICHLTNESDGHTTSLYGIGFGPFIITNKHLFRRNNGTLVVQSLHGVFKVKDTTTLQQHLVDGRDMIIIRMPKDFPPFPQKLKFREPQREERICLVTTNFQGKSMSSMVSDTSCTFPSGDGIFWKHWIQTKDGQCGSPLVSTRDGFIVGIHSASNFTNTNNYFTSVPKNFMELLTNQEAQQWVSGWRLNADSVLWGGHKVFMVKPEEPFQPVKEATQL", "note": "[T119G]", "area with substrate ENLYFES": 0.057, "area with substrate ENLYFWS": 0.0458}
{"variant": "MGESLFKGPRDYNPISSSICHLTNESDGHTTSLYGIGFGPFIITNKHLFRRNNGTLVVQSLHGVFKVKDTTTLQQHLVDGRDMIIIRMPKDFPPFPQKLKFREPQNEERICLVTTNFQTKSMSSMVSDTSCTFPSGDGIFWKHWIQTKDGQCGSPLVSTRDGFIVGIHSASNFTNTNNYFTSVPKNFMELLTNQEAQQWVSGWRLNADSVLWGGHKVFMVKPEEPFQPVKEATQL", "note": "[R106N]", "area with substrate ENLYFES": 0.0701, "area with substrate ENLYFFS": 0.0536, "area with substrate ENLYFHS": 0.0565, "area with substrate ENLYFIS": 0.0605, "area with substrate ENLYFKS": 0.0549, "area with substrate ENLYFMS": 0.0806, "area with substrate ENLYFNS": 0.0621, "area with substrate ENLYFPS": 0.0699, "area with substrate ENLYFRS": 0.0646, "area with substrate ENLYFTS": 0.0692}
{"variant": "MGESLFKGPRDYNPISSSICHLTNESDGHTTSLYGIGFGPFIITNKHLFRRNNGTLVVQSLHGVFKVKDTTTLQQHLVDGRDMIIIRMPKDFPPFPQKLKFREPQREERICLVTTNFQTKSMSSMVSDTSCTFPSGAGIFWKHWIQTKDGQCGSPLVSTRDGFIVGIHSASNFTNTNNYFTSVPKNFMELLTNQEAQQWVSGWRLNADSVLWGGHKVFMVKPEEPFQPVKEATQL", "note": "[D137A]", "area with substrate ENLYFES": 0.094, "area with substrate ENLYFFS": 0.0821, "area with substrate ENLYFIS": 0.0438, "area with substrate ENLYFNS": 0.0602, "area with substrate ENLYFPS": 0.0399, "area with substrate ENLYFWS": 0.0549, "area with substrate ENLYFYS": 0.0357}
{"variant": "MGESLFKGPRDYNPISSSICHLTNESDGHTTSLYGIGFGPFIITNKHLFRRNNGTLVVQSLHGVFKVKDTTTLQQHLVDGRDMIIIRMPKDFPPFPQKLKFREPQREERICLVTTNFQTKSMSSMVSDTSCTFPSGDGIFWKHWIQTKDGQCCSPLVSTRDGFIVGIHSASNFTNTNNYFTSVPKNFMELLTNQEAQQWVSGWRLNADSVLWGGHKVFMVKPEEPFQPVKEATQL", "note": "[G153C]", "area with substrate ENLYFES": 0.0576, "area with substrate ENLYFFS": 0.0581, "area with substrate ENLYFHS": 0.054, "area with substrate ENLYFIS": 0.0533, "area with substrate ENLYFKS": 0.0433, "area with substrate ENLYFMS": 0.0558, "area with substrate ENLYFPS": 0.0509, "area with substrate ENLYFTS": 0.0542, "area with substrate ENLYFVS": 0.0535, "area with substrate ENLYFWS": 0.0384}
{"variant": "MGESLFKGPRDYNPISSSICHLTNESDGHTTSLYGIGFGPFIITNKHLFRRNNGTLVVQSLHGVFKVKDTTTLQQHLVDGRDMIIIRMPKDFPPFPQKLKFREPQREERICLVTTNFQTKSMSSMVSDTSCTFPSGDGIFWKHWIQTKDGQCGSPLVLTRDGFIVGIHSASNFTNTNNYFTSVPKNFMELLTNQEAQQWVSGWRLNADSVLWGGHKVFMVKPEEPFQPVKEATQL", "note": "[S158L]", "area with substrate ENLYFES": 0.0473, "area with substrate ENLYFHS": 0.0541, "area with substrate ENLYFIS": 0.0409, "area with substrate ENLYFKS": 0.0507, "area with substrate ENLYFNS": 0.0545, "area with substrate ENLYFSS": 0.0713, "area with substrate ENLYFTS": 0.0491, "area with substrate ENLYFVS": 0.05, "area with substrate ENLYFWS": 0.0444}
{"variant": "MGESLFKGPRDYNPISSSICHLTNESDGHTTSLYGIGFGPFIITNKHLFRRNNGTLVVQSLHGVFKVKDTTTLQQHLVDGRDMIIIRMPKDFPPFPQKLKFREPQREERICLVTTNFQTKSMSSMVSDTSCTFPLGDGIFWKHWIQTKDGQCGSPLVSTRDGFIVGIHSASNFTNTNNYFTSVPKNFMELLTNQEAQQWVSGWRLNADSVLWGGHKVFMVKPEEPFQPVKEATQL", "note": "[S135L]", "area with substrate ENLYFES": 0.0574, "area with substrate ENLYFFS": 0.0714, "area with substrate ENLYFKS": 0.0734, "area with substrate ENLYFMS": 0.0445, "area with substrate ENLYFNS": 0.0593, "area with substrate ENLYFPS": 0.0568, "area with substrate ENLYFRS": 0.0652, "area with substrate ENLYFSS": 0.0809, "area with substrate ENLYFVS": 0.0577}
{"variant": "MGESLFKGPRDYNPISSSICHLTNESDGHTTSLYGIGFGPFIITNKHLFRRNNGTLVVQSLHGVFKVKDTTTLQQHLVDGRDMIIIRMPKDFPPFPQKLKFREPQREERICLVTTNFQTKSMSSMVSDDSCTFPSGDGIFWKHWIQTKDGQCGSPLVSTRDGFIVGIHSASNFTNTNNYFTSVPKNFMELLTNQEAQQWVSGWRLNADSVLWGGHKVFMVKPEEPFQPVKEATQL", "note": "[T129D]", "area with substrate ENLYFES": 0.0564, "area with substrate ENLYFMS": 0.0688, "area with substrate ENLYFNS": 0.0703, "area with substrate ENLYFPS": 0.0685, "area with substrate ENLYFTS": 0.0397}
{"variant": "MGESLFKGPRDYNPISSSICHLTNESDGHTTSLYGIGFGPFIITNKHLFRRNNGTLVVQSLHGVFKVKDTTTLQQHLVDGRDMIIIRMPKDFPPFPQKLKFREPQREERICLVTTNFQTKSMSSMVSDTSCTFPSGDGIFWKHWIQTKDGQCGIPLVSTRDGFIVGIHSASNFTNTNNYFTSVPKNFMELLTNQEAQQWVSGWRLNADSVLWGGHKVFMVKPEEPFQPVKEATQL", "note": "[S154I]", "area with substrate ENLYFES": 0.0669, "area with substrate ENLYFFS": 0.0746, "area with substrate ENLYFGS": 0.0601, "area with substrate ENLYFHS": 0.0636, "area with substrate ENLYFKS": 0.0649, "area with substrate ENLYFLS": 0.0682, "area with substrate ENLYFNS": 0.071, "area with substrate ENLYFSS": 0.101}
{"variant": "MGESLFKGPRDYNPISSSICHLTNESDGHTTSLYGIGFGPFIITNKHLFRRNNGTLVVQSLHGVFKVKDTTTLQQHLVDGRDMIIIRMPKDFPPFPQKLKFRPPQREERICLVTTNFQTKSMSSMVSDTSCTFPSGDGIFWKHWIQTKDGQCGSPLVSTRDGFIVGIHSASNFTNTNNYFTSVPKNFMELLTNQEAQQWVSGWRLNADSVLWGGHKVFMVKPEEPFQPVKEATQL", "note": "[E103P]", "area with substrate ENLYFES": 0.0749, "area with substrate ENLYFIS": 0.0619, "area with substrate ENLYFMS": 0.0648, "area with substrate ENLYFPS": 0.0402, "area with substrate ENLYFSS": 0.0815, "area with substrate ENLYFVS": 0.012}
